Measured values from the supplement of paper PMC8007513.
Structures can show the parent of a compound that is named as a salt. ± gives the standard error. About 75 (6%) of roughly 1,300 compounds showed an effect of 50% or more. The list shows a part of the results.

Tested on: Trichoderma virens ATCC 9645
Assay: growth yield (OD600) relative to untreated control; higher = less growth inhibition
Settings: compound concentration: 100 uM
Summary of the method: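 Spores of Trichoderma virens ATCC 9645, taken from potato dextrose agar plates grown for 7 days, were suspended at 15,000 spores ml^−1 in potato dextrose broth. In 96-well plates, 100 μl aliquots held library compounds at 100 μM final, either alone or together with a biocide at 200 ng ml^−1, and were grown at 30 °C. A BioTek EL800 read OD600 at 40 h and 72 h. Growth values are given relative to the control lacking both agents and are means of duplicate screens.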

SMILES	growth yield (40 h) [%]	growth yield (72 h) [%]
CC(C)CN(C[C@@H](O)[C@H](Cc1ccccc1)NC(=O)O[C@H]1CO[C@H]2OCC[C@H]21)S(=O)(=O)c1ccc(N)cc1 [Darunavir]	108 ± 1.8	111 ± 2.6
NC1CCN(c2nc3c(cc2F)c(=O)c(C(=O)O)cn3-c2ccc(F)cc2F)C1 (centres undefined) [Tosufloxacin hydrochloride]	95.9 ± 11	94.7 ± 11
COC(=O)Nc1nc2cc([S+]([O-])c3ccccc3)ccc2[nH]1 (centres undefined) [Oxfendazol]	98.16 ± 0.64	98.17 ± 0.42
COc1ccccc1OCC(O)COC(N)=O (centres undefined) [Methocarbamol]	104 ± 2.1	106 ± 1.1
Nc1ccn([C@@H]2CS[C@H](CO)O2)c(=O)n1 [Lamivudine]	103.7 ± 0.16	101 ± 1.9
Cc1cc(N)c2ccccc2[n+]1CCCCCCCCCC[n+]1c(C)cc(N)c2ccccc21 [Dequalinium dichloride]	2.54 ± 1.6	2.2 ± 1.4
CO/N=C(\C(=O)N[C@@H]1C(=O)N2C(C(=O)OC(C)OC(C)=O)=C(COC(N)=O)CS[C@H]12)c1ccco1 (some centres undefined) [Cefuroxime axetil]	97.05 ± 0.16	96.5 ± 1.7
COc1c(N2CCNC(C)C2)c(F)cc2c(=O)c(C(=O)O)cn(C3CC3)c12 (centres undefined) [Gatifloxacin]	95.3 ± 0.95	94.4 ± 3.4
O=C(c1ccccc1)c1ccc2n1CCC2C(=O)O (centres undefined) [Ketorolac tromethamine]	94 ± 2.2	89.8 ± 2.1
CCOC(=O)[C@@](C)(N)Cc1ccc(O)c(O)c1 [Methyldopate hydrochloride]	104 ± 5.2	97.85 ± 0.94
CN1Cc2c(N)cccc2C(c2ccccc2)C1 (centres undefined) [Nomifensine maleate]	99.8 ± 5.7	102 ± 4
CC(C)(O)c1ccccc1CC[C@@H](SCC1(CC(=O)O)CC1)c1cccc(/C=C/c2ccc3ccc(Cl)cc3n2)c1 [Montelukast]	114 ± 2.1	108 ± 2.4
c1ccc(CNc2ncnc3nc[nH]c23)cc1 [Aminopurine, 6-benzyl]	107 ± 1.4	107 ± 1.8
C=CCSCC1Nc2cc(Cl)c(S(N)(=O)=O)cc2S(=O)(=O)N1 (centres undefined) [Althiazide]	102 ± 2.2	97.4 ± 1.8
c1ccc(CN(CC2=NCCN2)c2ccccc2)cc1 [Antazoline hydrochloride]	99.12 ± 0.95	101.3 ± 0.42
CN(C)CC/C=C1/c2ccccc2COc2ccc(CC(=O)O)cc21 [Olopatadine hydrochloride]	103.9 ± 0.32	102.8 ± 0.42
CC(C(=O)O)c1ccc(C(=O)c2ccccc2)s1 (centres undefined) [Tiaprofenic acid]	93.88 ± 0.79	87.4 ± 1.4
CC(=O)N(CC(O)CN(C(C)=O)c1c(I)c(C(=O)NCC(O)CO)c(I)c(C(=O)NCC(O)CO)c1I)c1c(I)c(C(=O)NCC(O)CO)c(I)c(C(=O)NCC(O)CO)c1I (centres undefined) [Iodixanol]	99.4 ± 2.5	96.8 ± 0.94
N=C(N)NCCN1CCCCCCC1 [Guanethidine sulfate]	99.6 ± 1.1	100.79 ± 0.1
C#C[C@]1(O)CC[C@H]2[C@@H]3CCC4=CC(=O)CC[C@@H]4[C@H]3CC[C@@]21CC [Norgestrel-(-)-D]	101 ± 2.1	96.28 ± 0.63
CC(CN(C)C)CN1c2ccccc2Sc2ccccc21 (centres undefined) [Trimeprazine tartrate]	87.5 ± 2.4	96.9 ± 1.9

SMILES	growth yield (40 h) [%]	growth yield (72 h) [%]
CC1(C)[C@@H](OC(=O)CCC(=O)O)CC[C@]2(C)[C@H]3C(=O)C=C4[C@@H]5C[C@@](C)(C(=O)O)CC[C@]5(C)CC[C@@]4(C)[C@]3(C)CC[C@@H]12 [Carbenoxolone disodium salt]	95 ± 4.1	94.6 ± 2.1
C=CCOC(Cn1ccnc1)c1ccc(Cl)cc1Cl (centres undefined) [Enilconazole]	3.49	3.04 ± 0.32
CC[C@@H](CO)NCCN[C@@H](CC)CO [Ethambutol dihydrochloride]	105 ± 3.3	103 ± 2.3
CC(CN(C)C)C(C)(O)Cc1ccc(Cl)cc1 (centres undefined) [Clobutinol hydrochloride]	105 ± 3.5	104 ± 2.5
C[C@]1(Cn2ccnn2)[C@H](C(=O)O)N2C(=O)C[C@H]2S1(=O)=O [Tazobactam]	98.96 ± 0.79	96.8 ± 1.4
CC(=O)OCC(=O)[C@@]1(OC(C)=O)[C@@H](C)C[C@H]2[C@@H]3C[C@H](F)C4=CC(=O)C=C[C@]4(C)[C@@]3(F)[C@@H](O)C[C@@]21C [Diflorasone Diacetate]	106 ± 5.9	107 ± 6.7
CCCOc1ccc(C(=O)OCCN(CC)CC)cc1N [Proparacaine hydrochloride]	101 ± 2.9	99.2 ± 2.9
CCCCC1(COC(=O)CCC(=O)O)C(=O)N(c2ccccc2)N(c2ccccc2)C1=O [Suxibuzone]	95.94 ± 1.4e-14	93.13 ± 0.63
COc1cc(NC(C)CCCN)c2ncccc2c1 (centres undefined) [Primaquine diphosphate]	108 ± 9.4	111 ± 8.4
CCCCNc1c(C(=O)OCC)c(C)nc2c1cnn2CC [Tracazolate hydrochloride]	38.1 ± 16	60.5 ± 13
COc1cc(-c2ccc(=O)[nH]n2)ccc1OC(F)F [Zardaverine]	97.1 ± 6.8	96.8 ± 5.1
CC/C(=C(/CC)c1ccc(O)cc1)c1ccc(O)cc1 [Diethylstilbestrol]	81.6 ± 3.2	77.3 ± 3.9
CC1=C(/C=C/C(C)=C/C=C/C(C)=C\C(=O)O)C(C)(C)CCC1 [Isotretinoin]	99.4 ± 7.3	96.7 ± 6.9
CSc1ccc2c(c1)N(CCC1CCCCN1C)c1ccccc1S2 (centres undefined) [Thioridazine hydrochloride]	53.8 ± 6.2	83 ± 2.6
NC(N)=Nc1nc(CSCC/C(N)=N/S(N)(=O)=O)cs1 [Famotidine]	103 ± 1.9	101 ± 1.3
Cc1cc(-c2ccccc2)nnc1NCCN1CCOCC1 [Minaprine dihydrochloride]	100 ± 7.5	98.7 ± 3.7
CN(C)[C@@H]1C(O)=C(C(N)=O)C(=O)[C@@]2(O)C(O)=C3C(=O)c4c(O)cccc4[C@@](C)(O)[C@H]3[C@H](O)[C@@H]12 [Oxytetracycline dihydrate]	76.2 ± 4.5	67.4 ± 4.9
Cc1ccsc1/C=C/C1=NCCCN1C [Morantel tartrate]	101.2 ± 0.48	100 ± 0.63
CN(C)c1ccc(O)c2c1C[C@H]1C[C@H]3[C@H](N(C)C)C(O)=C(C(N)=O)C(=O)[C@@]3(O)C(O)=C1C2=O [Minocycline hydrochloride]	95.3 ± 0.64	97.4 ± 2
Nc1nc(NC2CC2)c2ncn([C@H]3C=C[C@@H](CO)C3)c2n1 [Abacavir Sulfate]	97.2 ± 2.5	98.48 ± 0.1
CCN(CC)CCNc1ccc(CO)c2sc3ccccc3c(=O)c12 [Hycanthone]	118 ± 4.1	114.7 ± 0.63
